Assay results from patent US20260224723A1, “ANTI-B7H3 ANTIBODY-DRUG CONJUGATE AND USE THEREOF” (Duality Biologics (Suzhou) Co., Ltd., priority 2022, published 2026).

B1: W301088-1.145.16-z3-p1-uIgG1KV320: humanized anti-B7H3 IgG1 antibody, heavy chain SEQ ID NO: 12, light chain SEQ ID NO: 13 (antibody)
heavy: QVQLQESGPGLVKPSQTLSLTCTVTDYSITGDYAWNWIRQHPGKGLEWIGYISYSGSTSYNPSLQSRVTISRDTSKNQFSLKLSSVTAADTAVYFCARSLGRRWYFVVWGQGTTVTVSSASTKGPSVFPLAPSSKSTSGGTAALGCLVKDYFPEPVTVSWNSGALTSGVHTFPAVLQSSGLYSLSSVVTVPSSSLGTQTYICNVNHKPSNTKVDKRV[not shown - human IgG1 Fc with changes]
light: DIVMTQSPDSLAVSLGERATINCKSSQSLLQSSNQKNYLAWYQQKPGQPPKLLIYFASTRESGVPDRFSGSGSGTDFTLTISSLQAEDVAVYYCQQHYSAPWTFGGGTKVEIKRTVAAPSVFIFPPSDEQLKSGTASVVCLLNNFYPREAKVQWKVDNALQSGNSQESVTEQDSKDSTYSLSSTLTLSKADYEKHKVYACEVTHQGLSSPVTKSFNRGEC
B2: WBP301088-X2: antibody WBP301088 conjugated to linker-payload X2; the DAR6 batch was used in Examples 3-11 (conjugate)
heavy: QVQLQESGPGLVKPSQTLSLTCTVTDYSITGDYAWNWIRQHPGKGLEWIGYISYSGSTSYNPSLQSRVTISRDTSKNQFSLKLSSVTAADTAVYFCARSLGRRWYFVVWGQGTTVTVSSASTKGPSVFPLAPSSKSTSGGTAALGCLVKDYFPEPVTVSWNSGALTSGVHTFPAVLQSSGLYSLSSVVTVPSSSLGTQTYICNVNHKPSNTKVDKRV[not shown - human IgG1 Fc with changes]
light: B1 light

Tests used:
[1] = Hydrophobicity by HIC-HPLC; type: physicochemical
Method: The hydrophobic property of the antibody in Example 1.2 was detected by HPLC 1260 infinity II system (Agilent Technologics™) with a TSKgel butyl-NPR column (Tosoh-0042168). Each antibody sample was diluted to 0.5 mg/mL with PBS buffer, and 20 μL of the diluted sample was injected into the column and separated at a flow rate of 0.5 mL/min for 61 min. The running buffers were 25 mM sodium phosphate, pH 7.0 (buffer A) and 25 mM sodium phosphate, 1.5 M (NH4)2SO4, pH 7.0 (buffer D). The running gradient from 3 min to 53 min was from 0% to 100% buffer D. The peak retention was detected with UV light at wavelengths of 280 nm and 230 nm. The retention time was analyzed by integrating all peak areas from 20 min to 40 min using HIC-HPLC analysis method. The operation and analysis software was the OpenLab CDS workstation (v2.6.0.691).

[2] = system: LD1-2027-410644 patient-derived prostate cancer tumor cells; assay: Prostate cancer micro patient-derived xenograft model LD1-2027-410644; type: in vivo, mice
Text: Tumor tissues of patient-derived prostate cancer transplantation models LD1-2027-410644 and LD1-2034-362055 (obtained from Shanghai LIDE Biotech., Co. Ltd.) were inoculated subcutaneously into mice. When the tumors grew to 500-800 mm^3, the tumor tissues were surgically and aseptically removed from the mice, and non-tumor tissues and necrotic tissues were removed in a biosafety cabinet to ensure the purity of the inoculated tumor tissues. The mice were euthanized. The treated tumor tissues were cut into small tumor masses of 1-3 mm^3, and the tumor masses were digested with the collagenase digest at 37° C. for 1-2 h. The supernatant was removed by centrifugation at 1200 rpm for 3 min, and the cells were resuspended in 10 mL of PBS containing 1% FBS and counted on a hemocytometer. […] The cells were resuspended in an RPMI1640 cell culture medium and counted on a hemocytometer. […]
The cell suspension was placed into capsules. […] The day of inoculation was recorded as day 0, and the animals were subjected to a single administration by tail vein injection. […]
At the end of the experiment, the mice were euthanized. The capsules were removed and cell viability assay was performed with CellTiter-Glo, i.e., the capsules were cut into pieces, PBS and CellTiter-Glo™ reagent with the same volume were added, and the luminescence value was measured. […]

[3] = system: patient-derived prostate cancer PR9586 tumor tissues; assay: PR9586 prostate cancer patient-derived xenograft model; type: in vivo, mice; conditions: 10 mg/kg i.v. once every two weeks x2, Day 25
Text: (§1) Patient-derived prostate cancer PR9586 and PR9587 tumor tissues were separately inoculated subcutaneously into NPG or NOG mice. When the tumors grew to about 500-800 mm^3, the tumor tissues were collected and the mice were euthanized. The collected tumor tissues were cut into tumor masses of a diameter of 2-3 mm and then inoculated subcutaneously into the right anterior scapula of the NPG or NOG mice. When the mean tumor volume of the tumor mass-inoculated NPG or NOG mice reached about 100-200 mm^3, the mice were randomized into groups with 6 mice in each of the blank control group and the treatment group.
(§2) The experiment ended on day 25 (for mice inoculated with PR9586) or on day 48 (for mice inoculated with PR9587). After the administration was started, the body weight and tumor size of the mice were measured twice a week. Calculation formula for tumor volume: Tumor volume (mm^3)=½×(a×b^2) (where a represents long diameter and b represents short diameter).
(§3) At the end of the experiment, mice were euthanized and tumor inhibition rate TGI was calculated as follows:
(§4) [formula] • wherein, • Ti: mean tumor volume of the treatment group on day i of administration; • T0: mean tumor volume of the treatment group on day 0 of administration; • Vi: mean tumor volume of the negative control group on day i of administration; • V0: mean tumor volume of the negative control group on day 0 of administration.

Human B7-H3(4Ig) = biological target: T1, Human B7-H3(4Ig) (Homo sapiens, UniProt Q5ZPR3); assay: ELISA binding to recombinant human B7H3 antigen; conditions: FIG. 13
T1 construct: His tag; purchased ACRO B7B-H52E7
T1 sequence (Q5ZPR3 29-534): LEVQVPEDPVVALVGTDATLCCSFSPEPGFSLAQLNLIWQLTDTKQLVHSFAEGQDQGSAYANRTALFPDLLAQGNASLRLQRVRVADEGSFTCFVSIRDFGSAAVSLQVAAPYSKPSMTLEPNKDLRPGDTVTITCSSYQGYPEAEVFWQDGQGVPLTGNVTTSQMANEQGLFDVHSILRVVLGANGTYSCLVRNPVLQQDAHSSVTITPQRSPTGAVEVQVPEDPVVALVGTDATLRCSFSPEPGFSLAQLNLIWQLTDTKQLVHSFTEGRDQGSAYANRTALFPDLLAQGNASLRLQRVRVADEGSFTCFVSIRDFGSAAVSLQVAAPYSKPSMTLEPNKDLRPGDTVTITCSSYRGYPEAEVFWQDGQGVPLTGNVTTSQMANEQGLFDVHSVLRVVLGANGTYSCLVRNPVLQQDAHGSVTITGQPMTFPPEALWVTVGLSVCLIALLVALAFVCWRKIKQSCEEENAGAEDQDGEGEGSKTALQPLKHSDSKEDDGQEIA
Method: In this example, whether there was a change in specific binding of the antibody to B7H3 antigen protein before and after conjugation to the drug was determined using ELISA. The information on the antigens and the test antibody used was as follows.
A 96-well ELISA plate was coated with 2 μg/mL recombinant human B7H3 antigen (see the table above) at 30 μL/well and kept at 4° C. overnight. The following day, the well plate was washed 3 times with PBST and then blocked with 5% skim milk for 2 h. […] The plate was then washed 3 times with PBST, and an HRP-labeled anti-human secondary antibody diluted in a 1:5000 ratio was then added at 100 μL/well and incubated for 1 h. After the incubation was complete, the plate was washed six times with PBST, and TMB (SurModics, TMBS-1000-01) was added for color development. Based on the results of the color development, the reaction was stopped by adding 2M HCl, and the plate was read by a microplate reader (Molecular Devices, SpecterMax 190) at OD450.

[4] = system: patient-derived prostate cancer PR9587 tumor tissues; assay: PR9587 prostate cancer patient-derived xenograft model; type: in vivo, mice
Text: as §1, §2, §3, §4

[5] = 10 mg/kg i.v. once every two weeks x2, Day 48

Molecule	HIC retention time [1] [min]	Mean signal value (CellTiter-Glo cell viability at endpoint) ([2]; 10 mg/kg single tail vein injection, 10 days, LD1-2027-410644 model)	anti-tumor effect (in words) ([2]; micro PDX models LD1-2027-410644 and LD1-2034-362055, 10 mg/kg)	T/C [3] [%]	TGI [3] [%]	Tumor volume (mean ± SEM) [3] [mm^3]	change in binding activity to human B7H3 antigen protein before and after conjugation (Human B7-H3(4Ig))	T/C [4, 5] [%]	TGI [4, 5] [%]	Tumor volume (mean ± SEM) [4, 5] [mm^3]	anti-tumor activity (in words) ([4]; PDX models (PR9586, PR9587), 10 mg/kg)
B1	23.52	–	–	–	–	–	–	–	–	–	–
B2	–	85868.38	significant anti-tumor effect	0.68	99.32	17.08 ± 6.02	no significant change	30.91	69.09	90.29 ± 39.21	The results indicate that the antibody-drug conjugate WBP301088-X2 of the present application showed significant anti-tumor activity after the administration.
